Measured values taken from PMC5018964, “Visualization and ligand-induced modulation of dopamine receptor dimerization at the single molecule level” (Scientific Reports, 2016).

Target: the molecule itself
Assay: single-molecule TIRF microscopy (intensity distribution of fluorescent spots); living stably transfected CHO cells, SNAP-tag labelled with 1 uM Alexa546-BG, ligand-free; spots of the first 10 frames fitted with a mixed Gaussian model; room temperature (24.0 ± 0.3 °C), imaging buffer pH 7.4; SNAP-D2L at 0.67 ± 0.03 spots um^-2

B1: SNAP-CD28 (human CD28 truncated at R185, SNAP-tag at the extracellular N-terminus) (domain or fragment)
chain: not shown
modifications: Alexa546 covalently on the SNAP-tag through benzylguanine (Alexa546-BG)
notes: human CD28 truncated at R185, PCR amplified from a CD28-YFP plasmid and ligated into pSNAPf in place of D2L; Called a disulfide-bridged protein dimer; also called SNAP-28; dimeric control protein; source: CHO-K1, stably transfected, in the membrane of living cells; not shown: SNAP-tag, N-terminal, kept
In the case of B1, the “stoichiometry N” value is reported as 2.
